Out of some 110,000 compounds screened, about 230 (0.21%) showed an effect of 50% or more. Some of the results follow.
These compounds were tested against DPAP1 (Plasmodium falciparum, UniProt Q8IIJ9) (assay: primary screen, percent inhibition; read by cleavage of a fluorogenic dipeptide substrate; higher = more effect of the substance).
Set-up: species or system P. falciparum D10 trophozoite lysates; single well
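Further: 30 min substrate incubation versus DMSO and 10 µM JCP410 controls.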

Chain of DPAP1 (Q8IIJ9 whole entry, looked up): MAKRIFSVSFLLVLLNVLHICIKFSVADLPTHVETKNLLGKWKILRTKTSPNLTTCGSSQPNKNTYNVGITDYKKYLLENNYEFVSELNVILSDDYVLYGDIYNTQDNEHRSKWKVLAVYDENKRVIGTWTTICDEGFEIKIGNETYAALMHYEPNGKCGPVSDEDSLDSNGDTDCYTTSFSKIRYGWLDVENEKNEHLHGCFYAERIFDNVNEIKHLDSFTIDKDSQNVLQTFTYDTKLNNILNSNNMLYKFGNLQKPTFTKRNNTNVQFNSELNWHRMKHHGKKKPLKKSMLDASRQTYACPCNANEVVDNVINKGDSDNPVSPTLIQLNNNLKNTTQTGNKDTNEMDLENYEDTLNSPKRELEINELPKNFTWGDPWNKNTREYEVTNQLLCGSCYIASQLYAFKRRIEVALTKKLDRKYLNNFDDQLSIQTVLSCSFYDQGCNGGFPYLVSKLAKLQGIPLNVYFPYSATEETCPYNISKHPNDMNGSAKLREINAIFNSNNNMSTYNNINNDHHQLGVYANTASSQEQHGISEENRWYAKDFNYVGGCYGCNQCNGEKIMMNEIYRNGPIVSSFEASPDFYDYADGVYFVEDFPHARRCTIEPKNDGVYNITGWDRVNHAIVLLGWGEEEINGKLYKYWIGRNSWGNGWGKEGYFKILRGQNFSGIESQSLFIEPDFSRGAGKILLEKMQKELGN

Structure (SMILES)	% Inhibition @ 10 uM
COC(=O)c1c(NC(=O)c2ccccc2OC)sc2c1CCCC2	3.04%
O=C(NCCc1ccccc1)c1cc(O)nc2ccc(S(=O)(=O)N3CCOCC3)cc12	5.7%
COCC(=O)Nc1nc2nc(C)c(Cl)c(C)n2n1	0.401%
Cc1c(O)c(S(=O)(=O)c2ccccc2)c(=O)n(-c2ccccc2)c1-c1ccccc1	2.38%
CC(C)(C)C(=O)Nc1ccccc1C(=O)Nc1ccccc1Cl	2.17%
CC(=O)Nc1ccc(NC(=O)c2ccc(C(C)(C)C)cc2)cc1	-0.425%
CCCOc1ccc(Cn2cnc3ccccc32)cc1	3.27%
O=C(Nc1nccs1)C1CCCN1S(=O)(=O)c1cccc2nsnc12 (stereo not shown)	4.54%
CCc1ncc(C(O)c2ccccc2OC)n1C (stereo not shown)	0.812%
COc1ccc(CC(=O)Nc2ccccc2Br)cc1	1.41%
Cc1cc(C)n(-c2ncnc3sc(C)c(-c4ccccc4)c23)n1	3.47%
O=c1oc2c3c(ccc2c2ccccc12)OCN(Cc1ccc(F)cc1)C3	-0.808%
Cc1cccc(NC(=O)c2cccs2)n1	-1.68%
Cc1cc(NS(=O)(=O)c2ccc(NC(=O)c3ccccc3C)cc2)no1	-3.83%
O=C(Cn1ncc2c1-c1ccccc1OC2)NCCOC12CC3CC(CC(C3)C1)C2	-2.42%
Fc1ccccc1C1C=C(c2ccccc2OC(F)F)Nc2nnnn21 (stereo not shown)	0.219%
O=C(c1cc(-c2ccc(Cl)cc2)nc2ccc(Br)cc12)N1CCOCC1	-2.32%
COc1ccc2nc(NC(=O)Cn3c(-c4ccccc4)cc(C(C)=O)c3C)sc2c1	-1.88%
COc1ccc2ccccc2c1C1C(C#N)=C(N)OC2=C1C(=O)CC(C)(C)C2 (stereo not shown)	1.03%
CC1CCCC(NC2CCN(CCc3ccccc3)CC2)C1C (stereo not shown)	-2.03%
CC1=C(C#N)c2nc(N)c(C#N)c(C)c2/C1=C\c1ccc(-c2ccccc2)o1	-7.09%
Cc1ccc(C)c(Cn2c3ccccc3c3cnn(CC(=O)N4CCC(C)CC4)c(=O)c32)c1	-3.35%
COc1ccc(OC)c(C2CC(=O)NC(SC)=C2C#N)c1 (stereo not shown)	-4.76%
C#CCNC(=O)Cn1c2ccccc2[n+]2nc(C)c(C)cc12	2.95%
COc1ccccc1NC(=O)c1cccc(C)c1	1.63%

Structure (SMILES)	% Inhibition @ 10 uM
COc1ccc(CCNC(=O)CN(c2cc(Cl)ccc2C)S(C)(=O)=O)cc1	5.03%
CCNC(=O)/C(=C\c1ccccc1)NC(=O)c1ccccc1Cl	-4.76%
CCCN1C(=O)c2ccc(C(=O)c3ccc(C(=O)O)cc3)cc2C1=O	-3.63%
COc1ccc2nc(NC(=O)c3noc4c3COc3ccc(C)cc3-4)sc2c1	2.78%
Cc1cccc(-c2nnc3c4c5c(sc4ncn23)CC(C)CC5)c1 (stereo not shown)	-3.63%
CCC(C)N1C(=O)S/C(=C/c2cccc(OC)c2)C1=O (stereo not shown)	-2.98%
COc1ccccc1NC(=O)C1=C(C)NC(SCC(N)=O)=C(C#N)C1c1ccccc1Cl (stereo not shown)	7.1%
C=CCn1c(C)nc2c(sc3nc4c(cc32)COC(C)(C)C4)c1=O	7.09%
CC1CCc2c(sc(NC(=O)C(C(F)(F)F)C(F)(F)F)c2C#N)C1 (stereo not shown)	-3.46%
CCOC(=O)c1c(N)sc(C(=O)N2CCc3ccccc3C2)c1C	-2.87%
Cc1ncc2c(c1O)COC(C(C)C)OC2 (stereo not shown)	-3.53%
CS(=O)(=O)c1ccc2nc(NS(=O)(=O)c3ccc(F)cc3)sc2c1	3.42%
O=C(NCc1ccc2c(c1)OCO2)c1cccc(C(=O)NCc2ccc3c(c2)OCO3)c1	9.65%
COc1ccc(CNC(=O)c2ccc(C(C)C)cc2)cc1	-1.61%
CN(C)C(=O)CSC(c1ccccc1)c1ccccc1	2.51%
CCOc1ccc(NC(=O)CSc2nc3ccc(OCC)cc3cc2C#N)cc1	-0.413%
Cc1cccc(C(=O)N/C(=C/c2ccco2)C(=O)O)c1	-4.7%
Cc1ccc(CN(C(=O)c2cccs2)C2CCS(=O)(=O)C2)o1 (stereo not shown)	-2.85%
COc1ccc(Cc2nnc(NC(=O)c3c(-c4ccccc4)noc3C)s2)cc1OC	3.12%
COC(=O)c1ccccc1NC(=O)C(C)Oc1ccc(C)cc1 (stereo not shown)	2.48%
O=C(O)CC(c1ccccc1)n1cccc1 (stereo not shown)	1.03%
CC(=O)N1CCN(c2cc(N3CCOCC3)c(F)cc2[N+](=O)[O-])CC1	-4.93%
CCOC(=O)c1c(C)nc2nn3c4c(nnc3c2c1-c1ccc(OC)cc1)C(=O)CC(C)(C)C4	5.02%
c1ccc(-c2cnc(-c3ccc(-c4cnc(-c5ccccc5)o4)cc3)o2)cc1	1.66%
CCOCCCNCc1c(C(=O)O)c(C)n(Cc2ccc(F)cc2)c1C	2.99%

Structure (SMILES)	% Inhibition @ 10 uM
CN1CC[C@@](O)(c2ccccc2)[C@@H]2CCC[C@@H]21	-2.56%
CCOC(=O)c1cc(NC(=O)N(Cc2ccco2)C2CCCCC2)c(C)nc1C	2.62%
CNC(=S)NCCc1c(C)[nH]c2ccc(Cl)cc12	2.85%
O=c1c2c(-c3ccccc3)csc2nc2c3ccccc3c(NCCCN3CCOCC3)nn12	12.2%
Oc1nnc(-c2ccc(F)cc2)c2c1Nc1nnnn1C2c1ccccc1 (stereo not shown)	3.66%
COc1ccc(-c2nc3ccccc3[nH]2)c(OC)c1OC	-8.06%
O=C(NCCNC(=O)c1ccco1)c1ccco1	-3.65%
CC(C)(CNC(=O)C1CCCC1)CNC(=O)C1CCCC1	-0.116%
Cc1ccc2c(N)c(C(=O)N(c3ccccc3)c3ccccc3)sc2n1	-1.38%
COc1ccc2ccccc2c1CNc1ccc2c(c1)CCC2	4.28%
C=CCOc1ccc(/C=C2/N=C(C)C(C(=O)OCC)=C2O)cc1OC	-3.09%
CCN(CC)C(=O)C1CCCN(CCC(C)c2ccccc2)C1 (stereo not shown)	-5.26%
CCc1nc2cccnc2n1-c1ccc(CC(=O)N2CCCCCC2)cc1	1.81%
CC(C)c1ccc(C2C(C(=O)c3ccc(F)cc3)=C(O)C(=O)N2CCCCCC(=O)O)cc1 (stereo not shown)	-0.178%
C=CCn1c(SCC(=O)NCC2CCCO2)nc2scc(-c3ccc(C)o3)c2c1=O (stereo not shown)	2.38%
CCOc1ccccc1/C=c1\sc2nnc(-c3ccccc3Cl)n2c1=O	3.25%
C=CCNC(=O)CN(c1ccc(F)cc1)S(=O)(=O)c1ccc(C)cc1	-2.05%
COc1ccccc1N1CCN(C(=O)C(c2ccccc2)c2ccccc2)CC1	2.23%
CCCCNC(=O)C(CC)n1c(SCc2cccc(F)c2)nc2ccncc21 (stereo not shown)	1.03%
Cc1cccc(-n2cnc3cc(C(=O)NCC4CCCO4)ccc32)c1 (stereo not shown)	-7.57%
CC1(C)CC(=O)C2=C(C1)N(Cc1ccco1)C(=O)C2(Nc1nc2ccccc2s1)C(F)(F)F (stereo not shown)	-1.52%
Cc1ccc(S(=O)(=O)Nc2ccc3c(c2)nc(C)n3Cc2ccccc2)cc1	-0.67%
CC1Oc2ccccc2C=C1/C=C(\NC(=O)c1ccc(Cl)cc1)C(=O)NCc1ccco1 (stereo not shown)	-1.47%
CCN(CC)CCCNC(=O)Cn1cnc2c(nc3n2CCCCC3)c1=O	5.92%
COC(=O)C1C(c2ccc([N+](=O)[O-])cc2)NC(c2ccc([N+](=O)[O-])cc2)C(C(=O)OC)S1(=O)=O (stereo not shown)	1.27%

Structure (SMILES)	% Inhibition @ 10 uM
O=C(NCc1cccnc1)c1[nH]c2ccccc2c1Sc1ccc(Cl)cc1	-8.95%
CCOC(=O)c1c(NC(=O)c2nccnc2C(=O)O)sc2c1CCCC2	15.7%
C/C(=C\C=C\c1ccccc1)C(=O)c1c(C)cc(C)nc1O	20.2%
COCCCNC(=O)c1ccc(CS(=O)(=O)c2ccc(OC)cc2)o1	-1.28%
Cn1c(=O)c2c(n3c4ccccc4nc13)NC(=O)CC2c1ccccc1C(F)(F)F (stereo not shown)	1.76%
CCOc1ccc(-n2cc(-c3ccccc3)c3c(O)ncnc32)cc1	3.59%
COc1ccccc1OCc1ccc(C(=O)Nc2ccncc2)o1	6.82%
C=CCN1C(=O)S/C(=C\c2ccc(OC)c(Cl)c2)C1=O	-3.26%
COc1ccc(Cl)cc1N(CC(=O)NCc1cccnc1)S(C)(=O)=O	21.7%
CC(C)(CNC(=O)c1ccc(Cl)cc1)CNC(=O)c1ccc(Cl)cc1	0.173%
Cc1sc2nc3c4ccccc4c(N4CCCCC4)nn3c(=O)c2c1C	-1.36%
CCN1CCN(S(=O)(=O)c2csc(C(N)=O)c2)CC1	0.0244%
CC1CN(c2ccc(N(C)C)cc2)C(=O)NC1=O (stereo not shown)	9.62%
COc1cccc2c1Oc1ncccc1N(C(=O)CCC(=O)NCc1ccc3c(c1)OCO3)C2	-7.46%
COc1ccc(CCNC(=O)c2cc(S(=O)(=O)N3CCCC3)cn2C)cc1OC	3.61%
c1cc2c(cc1NC1CCCCCC1)OCO2	-1.82%
Cn1ncc2c(=O)n(Cc3ccccc3Cl)cnc21	2.33%
O=C(NCC1CCCO1)C1CCN(c2ncnc3c2nc2n3CCCCC2)CC1 (stereo not shown)	8.23%
O=C1C2CCCCC2C(=O)N1c1ccc(Cl)cc1O (stereo not shown)	-4.65%
O=C(c1csc2ccccc12)N1CCN(c2ccccc2F)CC1	3.56%
CCCC(=O)Nc1ccccc1NC(=O)CCC	5.08%
CCOC(=O)N1CCN(C(=O)C2CCC(CNS(=O)(=O)c3ccc(Cl)cc3)CC2)CC1 (stereo not shown)	0.718%
CN1CCN(C(=O)C23CC4CC(CC(C4)C2)C3)CC1	-5.5%
COc1ccc(C(=O)N2CCN(Cc3ccc(C)cc3C)CC2)cc1	-3.5%
CCCN(CCC)C(=O)c1sc2nc(-c3ccc(OC)cc3)cn2c1C	-5.58%

Source: publication PMC6919601, “Identification of Plasmodium dipeptidyl aminopeptidase allosteric inhibitors by high throughput screening” (PLoS ONE, 2019)
